Test results published in PubChem BioAssay (NCI).
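Where inhibition never reached the appropriate level, the endpoint shown equals the highest concentration tested. Otherwise, values were interpolated linearly from a five-concentration, 48-hour dose response in 96-well plates. Abbreviation: GI50, concentration required for 50% inhibition of growth. TGI: total growth inhibition.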

Tested on: NCI-H322M lung
Test: inhibition of tumour cell growth, NCI panel, 48 h

Structure (SMILES)	TGI [µM]	GI50 [µM]
CN(C)CCNc1ncnc2nc(-c3ccccc3)c(-c3ccccc3)nc12	> 100	–
CCN(CC)CCC(=O)c1ccc(Cl)c(Cl)c1	> 100	–
CCOC(=O)C(Cc1ccccc1)n1c(O)c(/C=N/c2ncc(Cc3ccc(Cl)cc3Cl)s2)sc1=S (centres undefined)	37.2	3.38
C=CCc1cc(O)ccc1O	> 100	81.6
CS(=O)(=O)ON1C(=O)c2ccc(N)cc2C1=O	> 100	–
CC(=O)NC(CCc1ccc(Cl)c(Cl)c1)c1cccc(O)c(=O)c1 (centres undefined)	11.7	0.417
COc1ccc(/C=C/c2cc(O)cc(OC3OC(CO)C(O)C(O)C3O)c2)cc1O (centres undefined)	> 100	–
CCNCCS(=O)(=O)NC[C@@]1(c2ccccc2)SC(NC(=O)C(C)(C)C)=NN1C(=O)C(C)(C)C	> 100	< 0.01
CC1CN1c1c(C(=O)/C=C/c2ccc(F)cc2)c(-c2ccccc2)nn(C)c1=O (centres undefined)	32.7	–
CCc1n[nH]c(=O)n1-n1c(C)ccc1C	> 100	–
COc1ccc(N=Nc2c(-c3ccccc3)nn(C(=O)CC(=O)Nc3ccc(OC)cc3)c2-c2ccccc2)cc1	> 100	–
CSc1ccccc1NC1=NCCO1	> 100	–
CC(C)N(CCNc1nc(C(Cl)(Cl)Cl)nc2cc(Cl)ccc12)C(C)C	3.45	1.48
O=C1NC(=Nc2ccccc2Cl)N/C1=C\c1c(Cl)cccc1Cl	> 100	–
Cc1[nH]c2ccccc2c1/C=C/c1c(C)[nH]c2ccccc12	> 100	–
CN1CCC(=C(c2ccc(Cl)cc2)c2ccccn2)CC1	> 100	> 100
CC12CCC(=O)N1[C@@H](c1ccccc1)[C@@H](c1ccccc1)O2 (some centres undefined)	> 100	–
O=C(CCl)N1CCN(c2ccccn2)CC1	37.4	–
